Among the data in PubChem BioAssay AID1645887 (National Center for Advancing Translational Sciences (NCATS), 2021) are activation values, retold here.

“And” between values parts separate entries of the source, which are not always exact repeats. Equal entries are not always repeated. About 40 (0.2%) of roughly 16,000 compounds were called active. About 1% were inconclusive and are not listed. The call rests on the fitted dose curve; in most records, active means well fitted activation curve with a large enough effect; inconclusive means small, poorly fitted or top-dose-only effect, or another doubt; inactive means no such curve, though single readings can be large or run the other way. Some of the results follow.
On the % scale 0 is the no-effect control and ±100 the full control effect.

UniProt Q8WZA2, sequence (Q8WZA2 whole entry, looked up): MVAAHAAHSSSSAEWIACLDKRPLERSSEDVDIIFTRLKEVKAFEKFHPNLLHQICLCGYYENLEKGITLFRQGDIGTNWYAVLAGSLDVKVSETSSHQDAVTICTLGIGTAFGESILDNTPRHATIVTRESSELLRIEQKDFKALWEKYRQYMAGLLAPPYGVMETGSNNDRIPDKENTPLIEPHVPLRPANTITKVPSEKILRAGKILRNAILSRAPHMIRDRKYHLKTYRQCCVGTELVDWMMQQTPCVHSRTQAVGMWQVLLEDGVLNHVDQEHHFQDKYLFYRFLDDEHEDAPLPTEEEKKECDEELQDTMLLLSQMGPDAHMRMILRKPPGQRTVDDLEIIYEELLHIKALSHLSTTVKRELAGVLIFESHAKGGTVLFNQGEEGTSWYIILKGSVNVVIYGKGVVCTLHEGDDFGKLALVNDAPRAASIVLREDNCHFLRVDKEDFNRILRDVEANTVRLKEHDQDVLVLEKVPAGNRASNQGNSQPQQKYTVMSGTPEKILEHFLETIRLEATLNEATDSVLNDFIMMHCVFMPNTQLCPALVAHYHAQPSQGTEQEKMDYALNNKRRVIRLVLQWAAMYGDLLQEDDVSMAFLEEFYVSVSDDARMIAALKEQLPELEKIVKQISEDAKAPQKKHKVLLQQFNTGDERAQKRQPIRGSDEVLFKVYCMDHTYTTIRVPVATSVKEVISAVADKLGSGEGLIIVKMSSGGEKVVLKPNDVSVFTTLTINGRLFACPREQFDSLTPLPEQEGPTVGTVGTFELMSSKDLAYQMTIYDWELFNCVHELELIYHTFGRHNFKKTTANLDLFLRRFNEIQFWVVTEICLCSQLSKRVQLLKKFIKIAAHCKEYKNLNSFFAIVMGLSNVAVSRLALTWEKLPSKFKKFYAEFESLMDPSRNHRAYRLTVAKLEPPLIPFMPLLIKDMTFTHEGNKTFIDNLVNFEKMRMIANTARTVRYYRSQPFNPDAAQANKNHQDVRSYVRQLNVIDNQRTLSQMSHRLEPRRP

This test addresses Rap guanine nucleotide exchange factor 4 (Homo sapiens) (UniProt Q8WZA2). In words: Validation qHTS for agonist of cAMP-regulated guanine nucleotide exchange factor 4 (EPAC2).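 Further: exchange makes BODIPY-GDP fluorescence drop when released from Rap1B; series mostly up to about 150 µM.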 The following applies: EPAC2 Rap1B BODIPY-GDP exchange, fluorescence; activation: stronger effect = higher value. The method in brief:
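Signal normalized against 6.5 mM cAMP as agonist control. Mix of EPAC2 (100 nM), RAP1B-BODIPY-GDP (250 nM) and GDP (50 uM) was read kinetically at 480/540 nm, every 5 min over 30 min, after 5 min room-temperature incubation with compound.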
Background: qHTS replaces the single test concentration by a dilution series.
As for `COc1ccc(-c2cn(Cc3ccc4c(c3)C(=O)c3ccccc3C4=O)nn2)cc1`, the activation is inactive: 6%.

Turning to `COCCn1c(=O)cnc2cnc(N3CCN(C)CC3)nc21`, the activation is inactive: 9.03%.

Consider `COc1ccccc1CN1CCCC2(CCN(C(=O)c3cccc(F)c3)CC2)C1`, for which the activation is inactive: -21.1%.

Turning to `CC(C)C[C@@H](CN=[N+]=[N-])N1CCN(CCc2ccccc2)CCC1=O`, the activation was inactive: 9%.

`COc1ccc(CN2CCOc3ccc(C(O)c4cccnc4)cc3C2)c(F)c1` (stereo not given): the activation is inactive: -2.95%.

With `CN(C)Cc1ccccc1-c1nccc(Nc2ccc(F)cc2)n1`, the activation was inactive: -2.75%. For `NCc1ccc(S(N)(=O)=O)cc1`, the activation was inactive: -17.8% and inactive: -14.5%. On to `O=C1/C(=C\c2cccs2)CCC/C1=C\c1cccs1`, for which the activation is inactive: 6.67%.

For `Cc1cc[n+](CC(=O)c2ccc(F)cc2)c2ccccc12`, the activation is inactive: -13.2%. Take `COCCNc1ccnc(-c2c(C)noc2C)n1`: the activation was inactive: -21.8%. As to `O=C1OC2(c3ccccc31)c1cc(Br)c(O)c(Br)c1Oc1c2cc(Br)c(O)c1Br`, the activation was inactive: -13.1%. With `c1ccc2oc(C3=NCCN3)cc2c1`, the activation was inactive: -17.5%. Take `COC(=O)c1ccccc1-c1cc(C)cc2c1OC(CNC(=O)c1cc(C)n(C)n1)C2` (stereo not given): the activation was inactive: 4.71%. Turning to `CCc1oc2ccccc2c1C(=O)c1cc(Br)c(O)c(Br)c1`, the activation is inactive: -35.4%.

Regarding `CCCCN1CC[C@H]2C=CC[C@@H](C(=O)Nc3ccc(Cl)c(C(F)(F)F)c3)[C@H]2C1=O`, the activation is inactive: -10.4%.

As for `COc1cccc(Cn2c(=O)c(C)nc3cnc(N4CCOCC4)nc32)c1`, the activation is inactive: 1.39%. For `COc1cc(-c2ccc(C(F)(F)F)cn2)cc2c1OCCN(S(=O)(=O)C[C@]13CC[C@H](CC1=O)C3(C)C)C2`, the activation was inactive: -5.51%. Turning to `Cc1cccc(CNc2ncnc3ccc(-c4ccccc4C#N)cc23)c1`, the activation was inactive: -12.3%. Turning to `CC(=C(CCOC(=O)C(C)C)SSC(CCOC(=O)C(C)C)=C(C)N(C=O)Cc1cnc(C)nc1N)N(C=O)Cc1cnc(C)nc1N`, the activation is inactive: 14.4%. Regarding `CC(C)C[C@@H](CO)N(Cc1ccccc1)S(=O)(=O)N(Cc1ccccc1)[C@H](CO)CC(C)C`, the activation is inactive: -10.8%. As to `COC(=O)C(N)Cc1ccc(Cl)cc1` (stereo not given), the activation was inactive: -21.7%. As for `C[C@@H]1[C@H](c2ccccc2)OCCS(=O)(=O)N1Cc1ccc(F)cc1`, the activation is inactive: -1.91%. Under `O=Cc1ccc(I)cc1` stands inactive: -16.5%. For the compound `O=C(O)C(O)[C@@](O)(Cc1ccc(O)cc1)C(=O)O` (stereo not given in full), the activation is inactive: -7.12%. The same measure for `CCC1CN(CCNC(=O)c2cc(C)nn2CC)Cc2cc(OC)ccc2O1` (stereo not given): inactive: -8.87%.
